The whole screen tested about 310,000 compounds, of which about 2,200 (0.71%) showed an effect of 50% or more. The effect is printed as a negative number. This is one part of the list.
Target: human ether-à-go-go-related gene (hERG) potassium channel (human, UniProt Q12809)
Assay: primary screen, population patch clamp on CHO cells stably expressing hERG

human ether-à-go-go-related gene (hERG) potassium channel, sequence (Q12809 whole entry, looked up): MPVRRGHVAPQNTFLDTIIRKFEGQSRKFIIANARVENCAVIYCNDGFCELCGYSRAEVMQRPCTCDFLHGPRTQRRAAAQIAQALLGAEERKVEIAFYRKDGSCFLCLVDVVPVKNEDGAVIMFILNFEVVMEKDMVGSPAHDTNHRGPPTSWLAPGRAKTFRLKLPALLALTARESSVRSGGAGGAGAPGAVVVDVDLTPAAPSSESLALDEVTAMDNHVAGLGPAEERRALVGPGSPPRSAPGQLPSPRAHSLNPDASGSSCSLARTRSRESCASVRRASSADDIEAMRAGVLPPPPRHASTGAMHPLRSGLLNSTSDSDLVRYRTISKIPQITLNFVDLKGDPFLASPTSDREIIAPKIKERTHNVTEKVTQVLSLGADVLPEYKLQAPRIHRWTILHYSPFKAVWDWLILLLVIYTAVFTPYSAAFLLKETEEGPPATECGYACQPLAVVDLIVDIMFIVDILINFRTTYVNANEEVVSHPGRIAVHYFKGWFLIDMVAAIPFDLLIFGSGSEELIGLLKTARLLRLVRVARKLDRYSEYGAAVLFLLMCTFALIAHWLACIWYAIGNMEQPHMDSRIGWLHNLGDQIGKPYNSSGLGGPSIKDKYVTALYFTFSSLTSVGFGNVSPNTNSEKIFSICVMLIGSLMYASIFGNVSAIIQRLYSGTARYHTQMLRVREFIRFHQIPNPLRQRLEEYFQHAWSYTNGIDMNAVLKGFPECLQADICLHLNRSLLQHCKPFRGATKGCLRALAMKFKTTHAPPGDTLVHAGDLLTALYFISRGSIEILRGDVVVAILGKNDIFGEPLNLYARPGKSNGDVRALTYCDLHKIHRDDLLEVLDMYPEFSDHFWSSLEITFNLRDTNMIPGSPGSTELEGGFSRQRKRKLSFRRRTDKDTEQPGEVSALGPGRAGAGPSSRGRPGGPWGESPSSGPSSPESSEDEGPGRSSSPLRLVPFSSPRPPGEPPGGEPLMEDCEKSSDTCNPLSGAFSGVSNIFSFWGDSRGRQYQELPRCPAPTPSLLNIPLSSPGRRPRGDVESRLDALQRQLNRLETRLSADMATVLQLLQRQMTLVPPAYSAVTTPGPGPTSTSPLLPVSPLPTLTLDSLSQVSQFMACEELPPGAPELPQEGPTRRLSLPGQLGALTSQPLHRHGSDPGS

First: COCCCNc1c2c(nc3nnnn13)CCCC2
Second: C1CCCCCC(=NNc2nn[nH]n2)CCCCC1
The “hERG current change (%, negative = inhibition) at 1uM” value of the first is lower: 7.68% for the first, 12.4% for the second.

Compared with `COC(=O)c1ccccc1NC(=O)CN1C(=O)NC2(CCCCCCC2)C1=O`, `COC(=O)C(C(=O)Nc1ccccc1C)C1CCCCCC1` (centres unmarked) is higher in “hERG current change (%, negative = inhibition) at 1uM” value: 9.1% for the first, 9.43% for the second.

First: CC[n+]1c(C)n(-c2ccccc2)c2ccc(C(=O)OC)cc21.[I-]
Second: Cc1ccc(C(=O)Nc2nc(N)n(-c3ccccc3)n2)cc1
The “hERG current change (%, negative = inhibition) at 1uM” value of the first is higher: 13.1% for the first, 12.1% for the second.

Compared with `CC(C)Oc1ccc(CC2CC(=O)NC2=O)cc1` (centres unmarked), `COc1ccc(CCC(C)N(C)Cc2ccccc2)cc1` (centres unmarked) is lower in “hERG current change (%, negative = inhibition) at 1uM” value: 13.9% for the first, -6.74% for the second.

Compared with `CC[N+](C)(CC)CCCOC(=O)C(O)(c1ccccc1)C1CCCCC1.[I-]` (centres unmarked), `CC1CCCCC1NC(=O)COC(=O)Cc1ccc(Br)cc1` (centres unmarked) is higher in “hERG current change (%, negative = inhibition) at 1uM” value: 10.4% for the first, 17.7% for the second.

Going from `CCOc1cccc(C(=O)Nc2ccc3c(c2)OCCO3)c1` to `Brc1ccc(-c2nc3ncccn3c2Nc2ccc3c(c2)OCCO3)o1`, the “hERG current change (%, negative = inhibition) at 1uM” value falls from 12.1% to 8.93%.

First: CN(C)C(=O)c1cn(N(C)c2ncc(C(F)(F)F)cc2Cl)c(=O)c2ccccc12
Second: COc1cc(CNCc2ccccc2C(F)(F)F)cc(OC)c1.O=C(O)C(=O)O
The “hERG current change (%, negative = inhibition) at 1uM” value of the first is higher: 9.97% for the first, 6.09% for the second.

Compared with `O=S(=O)(Nc1cc(Cl)ccc1-n1cncn1)c1ccc(F)cc1`, `COCCCNC(=O)CC(NS(=O)(=O)c1ccc(F)cc1)c1ccc(OC)cc1` (centres unmarked) is lower in “hERG current change (%, negative = inhibition) at 1uM” value: 6.13% for the first, 3.35% for the second.

Compared with `O=C(CC(C(=O)O)c1ccc(Cl)cc1)c1ccc(Cl)c(Cl)c1` (centres unmarked), `Cc1csc(SCC(=O)NCCc2ccc(Cl)cc2)n1` is lower in “hERG current change (%, negative = inhibition) at 1uM” value: 13.2% for the first, 2.21% for the second.

Going from `Cc1ccc(S(=O)(=O)N2CCCCC2)cc1NC(=O)c1c(-c2ccccc2)noc1C` to `CCCCCNC(=O)c1cc(S(=O)(=O)N2CCCC2)ccc1F`, the “hERG current change (%, negative = inhibition) at 1uM” value rises from -0.916% to 5.33%.

Compared with `Cc1ccccc1-n1nc(-c2cccnc2)cc1C(=O)NN`, `Cc1nn(Cc2ccc([N+](=O)[O-])cc2)c(=O)n1-c1ccccc1` is lower in “hERG current change (%, negative = inhibition) at 1uM” value: 13.8% for the first, -8.13% for the second.

First: CCC(C)C(=O)Nc1nnc(SCC(=O)Nc2ccccc2F)s1 (centres unmarked)
Second: CCSCCc1nnc(NC(=O)Nc2cccc(C(F)(F)F)c2)s1
The “hERG current change (%, negative = inhibition) at 1uM” value of the first is higher: 11.3% for the first, 3.99% for the second.

Going from `COc1ccc(CC2(CO)CCN(Cc3cccc(OC)c3OC)CC2)cc1` to `COc1ccc(NC(=O)CCN2CCN(S(=O)(=O)c3ccc(C(C)C)cc3)CC2)cc1`, the “hERG current change (%, negative = inhibition) at 1uM” value rises from -17.3% to -4.55%.

Going from `Cc1ccc(Oc2cc(NC(=O)CCCn3nc(C)c([N+](=O)[O-])c3C)cc([N+](=O)[O-])c2)cc1` to `CCCCCCC(=O)Nc1ccc(S(=O)(=O)Nc2onc(C)c2C)cc1`, the “hERG current change (%, negative = inhibition) at 1uM” value rises from 6.59% to 16%.

Compared with `O=C1NC(=O)/C(=C\c2ccccc2Oc2ccc(F)c(F)c2)S1`, `O=C(NN1C(=O)/C(=C/c2cc([N+](=O)[O-])ccc2O)SC1=S)c1ccccc1O` is lower in “hERG current change (%, negative = inhibition) at 1uM” value: 9.61% for the first, 8.7% for the second.

Compared with `N#CC1=C(Nc2ccc(Br)cc2)CCC1`, `COCc1cc(C)nc(SCc2ccc(Br)cc2)c1C#N` is higher in “hERG current change (%, negative = inhibition) at 1uM” value: -15.3% for the first, 9.75% for the second.

Going from `CCN(CC)c1ccc(C(=O)OCC(=O)Nc2ccccc2-c2ccccc2)cc1` to `COC(=O)c1c(C)oc2ccc(N(C(=O)Oc3ccccc3)S(=O)(=O)c3ccccc3)cc12`, the “hERG current change (%, negative = inhibition) at 1uM” value falls from 17.3% to 8.21%.

First: c1ccc(-c2nnc(SCc3nnc(-c4cccs4)o3)o2)cc1
Second: Cn1c(COc2ccccc2)nnc1SCC(=O)c1cccc([N+](=O)[O-])c1
The “hERG current change (%, negative = inhibition) at 1uM” value of the first is lower: -7.09% for the first, 2.32% for the second.

Going from `CCC1CCCCN1CCCNC(=O)c1ccc2nc(N3CCC(C)CC3)sc2c1` (centres unmarked) to `Cc1ccn2c(CNC(C)CCn3cccn3)c(C(=O)N3CCCCCC3)nc2c1` (centres unmarked), the “hERG current change (%, negative = inhibition) at 1uM” value falls from -1.56% to -16.2%.

Going from `Cc1ccc(-c2nc3ccccn3c2NCc2ccc3c(c2)OCO3)cc1` to `CCOc1ccc(-c2[nH]nc3c2C(c2ccc4c(c2)OCO4)C(C#N)=C(N)O3)cc1OC` (centres unmarked), the “hERG current change (%, negative = inhibition) at 1uM” value rises from -20.8% to 0.511%.

Going from `CCCCC(=O)N/C(N)=N/c1nc2ccccc2o1` to `CNC(=O)NC(=O)CSc1nc2ccccc2n1CCOC`, the “hERG current change (%, negative = inhibition) at 1uM” value falls from 12% to 4.94%.

Compared with `Cc1nc(NCc2ccccc2)[nH]c(=O)c1CCC(C)C`, `CCc1c(C)nc(N2CCN(c3ccccc3)CC2)[nH]c1=O` is lower in “hERG current change (%, negative = inhibition) at 1uM” value: 17.5% for the first, 13.7% for the second.

Compared with `O=C(NCC1CCCO1)c1cc(NS(=O)(=O)c2cccs2)cc(NS(=O)(=O)c2cccs2)c1` (centres unmarked), `Cc1cc(Cl)c(S(=O)(=O)Nc2cc(S(=O)(=O)N3CCOCC3)ccc2F)cc1OCC(N)=O` is lower in “hERG current change (%, negative = inhibition) at 1uM” value: 13.8% for the first, 6.64% for the second.

Going from `CCN(CC)CC(=O)Nc1sc2c(c1C(=O)c1ccccc1C)CCC2` to `CCOC(=O)c1c(N)sc(C(=O)Nc2ccc3c(c2)OCO3)c1C`, the “hERG current change (%, negative = inhibition) at 1uM” value falls from 10.4% to -3.27%.

First: CCN1CCN(C(c2cccs2)C(C)NS(=O)(=O)c2ccc(F)cc2)CC1 (centres unmarked)
Second: CCCC(=O)Nc1ccc(S(=O)(=O)N2CCC(c3nc4ccccc4[nH]3)CC2)cc1
The “hERG current change (%, negative = inhibition) at 1uM” value of the first is higher: -5.31% for the first, -7.71% for the second.

Compared with `COC(=O)c1ccccc1NC(=O)C1CCCN(c2nnc(-n3cccc3)s2)C1` (centres unmarked), `COc1ccc(N2CCN(C(=O)[C@@H](NC(=O)c3ccccc3Cl)C(C)C)CC2)cc1` is higher in “hERG current change (%, negative = inhibition) at 1uM” value: -10.1% for the first, 19.6% for the second.

Compared with `CCCCn1c(N)c(-c2nc3ccccc3s2)c2c([N+](=O)[O-])nn(C)c(=O)c21`, `CC(C)Cn1c(-c2cc([N+](=O)[O-])ccc2Cl)nc2c1c(=O)[nH]c(=O)n2Cc1ccccc1` is higher in “hERG current change (%, negative = inhibition) at 1uM” value: -3.71% for the first, 16.7% for the second.

Going from `Cc1cc(NC(=O)c2cccc3c2C(=O)N(C2CCCCC2)C3)ccc1Br` to `O=C(NC1CCCC1)C(c1ccncc1)N(C(=O)c1csnn1)c1cccc(F)c1` (centres unmarked), the “hERG current change (%, negative = inhibition) at 1uM” value falls from 16.3% to 13.5%.

Compared with `Cc1cc2ncc(Cl)nc2cc1C`, `Cc1cc(C)nc(Nc2ncc(O)n2-c2ccc(C)c(Cl)c2)n1` is lower in “hERG current change (%, negative = inhibition) at 1uM” value: 19.6% for the first, 14.2% for the second.

Compared with `O=c1n(-c2ccccc2)c(=O)n2n1CCC2`, `Cn1nnnc1SC1CC(=O)N(c2ccccc2)C1=O` (centres unmarked) is lower in “hERG current change (%, negative = inhibition) at 1uM” value: 3.4% for the first, 0.721% for the second.

Going from `CCOc1ccc(CNS(=O)(=O)c2cc(CN3C(=O)c4cccnc4C3=O)ccc2OC)cc1` to `COc1ccc(CNCC(O)(c2ccccc2)c2ccc(Cl)cc2)cc1` (centres unmarked), the “hERG current change (%, negative = inhibition) at 1uM” value falls from -2.04% to -13.4%.

Compared with `Cc1cc(NCCOCCO)n2ncc(-c3ccc(Cl)cc3)c2n1`, `Cc1cc(C)nc(Nc2cccc3ccccc23)n1` is higher in “hERG current change (%, negative = inhibition) at 1uM” value: 12.2% for the first, 13.1% for the second.

Going from `Cc1ccc(C(=O)CSc2nnc(-c3ccco3)n2C)cc1` to `Cc1ccc(S(=O)(=O)c2c(N)n(/N=C/c3ccco3)c3nc4ccccc4nc23)cc1`, the “hERG current change (%, negative = inhibition) at 1uM” value rises from 4.49% to 9.97%.

Compared with `CCCCOc1ccccc1C1NC(=O)CCC1[N+](=O)[O-]` (centres unmarked), `CCC1Sc2ccc(S(=O)(=O)CCC(=O)N3CCc4ccccc43)cc2NC1=O` (centres unmarked) is lower in “hERG current change (%, negative = inhibition) at 1uM” value: 11.9% for the first, 3.13% for the second.

Going from `c1ccc(CN2CCN(c3nc4ccccc4s3)CC2)cc1` to `O=C(Nc1ccc(N2CCN(C(=O)c3ccccc3)CC2)c(Cl)c1)c1cccnc1`, the “hERG current change (%, negative = inhibition) at 1uM” value falls from 15.1% to 8.16%.

First: Cc1noc(C)c1/C=N/Nc1ccccn1
Second: C/C(CC(=O)Nc1ccc(F)cc1)=N\NC(=O)c1ccccn1
The “hERG current change (%, negative = inhibition) at 1uM” value of the first is higher: 10.5% for the first, 4.39% for the second.

First: CN1/C(=C\C(=O)C[n+]2cccc(Br)c2)C(C)(C)c2ccccc21.[Cl-]
Second: O=C(/C=C/c1c(F)cccc1Cl)NCc1ccco1
The “hERG current change (%, negative = inhibition) at 1uM” value of the first is lower: 3.92% for the first, 5.05% for the second.

First: O=Cc1c(Nc2ccccc2Cl)nc2ccccn2c1=O
Second: C=CCNC(=S)N/N=C/c1ccc(OCc2ccccc2Cl)cc1
The “hERG current change (%, negative = inhibition) at 1uM” value of the first is higher: 12.4% for the first, 2% for the second.

Going from `S=C(NCCCCNC(=S)NCc1ccccc1)NCc1ccccc1` to `CC1CCCCC12NC(=O)N(CC(=O)NCCc1ccc(S(N)(=O)=O)cc1)C2=O` (centres unmarked), the “hERG current change (%, negative = inhibition) at 1uM” value rises from 6.63% to 8.41%.

First: CC(=O)Nc1ccc(S(=O)(=O)N(C)CC(=O)OCC(=O)N2CCCCCC2)cc1
Second: COc1ccccc1NS(=O)(=O)c1ccc(NN=C2CCCCC2)c([N+](=O)[O-])c1
The “hERG current change (%, negative = inhibition) at 1uM” value of the first is higher: 11.3% for the first, 8.97% for the second.

Going from `Cc1ccc(N2CC(C(=O)Nc3ccc(S(=O)(=O)Nc4nccs4)cc3)CC2=O)cc1` (centres unmarked) to `Cc1ccc(-n2c(-c3cnccn3)n[nH]c2=S)c(Br)c1`, the “hERG current change (%, negative = inhibition) at 1uM” value falls from 16.1% to 10.7%.

Compared with `CCOC(=O)c1cc(C(=O)OCC)c(=O)[nH]c1C`, `CCOC(=O)c1sc2cccc(F)c2c1N` is lower in “hERG current change (%, negative = inhibition) at 1uM” value: 12.3% for the first, -14.6% for the second.

Going from `CCO[C@H]1OC(C(N)=O)=C[C@@H](C)[C@@H]1CCCO` to `Cc1cccc(OCCCCCN2CCOCC2)c1C`, the “hERG current change (%, negative = inhibition) at 1uM” value falls from 11.8% to 11.4%.

Going from `CNC(=S)N(C)CCc1cc2c(c(OC)c1/C=C1/C(=O)NC(=O)N(C)C1=O)OCO2` to `CCC(NC(=O)CSc1nnnn1C1CC1)c1ccc(Br)cc1` (centres unmarked), the “hERG current change (%, negative = inhibition) at 1uM” value falls from 14.2% to -1.62%.

In the case of `O=C(Nc1c(F)c(F)c(F)c(F)c1F)NC1CCCCC1`, the “hERG current change (%, negative = inhibition) at 1uM” value is reported as -0.0266%.

— PMC4336329 (PLoS ONE, 2015)
